The other results are listed elsewhere or left out. One pool of 16,384 single-stranded DNAs met each Rep nickase domain in vitro (3 µM enzyme, 1 h, 37 °C); shown is the middle of each 90-letter strand. Uncut reads are compared with the no-enzyme pool on a log2 scale; strong cutting gives strongly negative numbers. There is no active / inactive call. Because reads are shares of a total, they shift together; where an enzyme cuts many sequences, the uncut ones exceed 0.
Assays:
Experiment in all cases: uncleaved DNA left, log2 of reads against the no-enzyme library (log2 ratio); higher = less cleavage (more negative = more Rep cleavage of the k-mer); sequences stand for … in CTCGTCCG…ACCGGAGA
[1] = test system: T1, Rep nickase domain of Muscovy duck circovirus
T1 sequence (protein, residues 1-111, tag omitted): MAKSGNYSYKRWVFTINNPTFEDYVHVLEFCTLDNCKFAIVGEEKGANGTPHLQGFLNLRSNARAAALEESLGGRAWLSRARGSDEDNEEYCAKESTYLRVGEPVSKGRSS
Experimental: (§1)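 A pool of 90-nt single-stranded DNAs with seven random bases just before the constant AC of the nick site (name = the seven bases) was cut by 3 µM recombinant His6-SUMO-tagged Rep nickase domain (300 nM DNA, 50 mM HEPES pH 8.0, 50 mM NaCl, 1 mM MnCl2, 1 h, 37 °C, three replicates). Uncut DNA was amplified and sequenced.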

[2] = test system: T2, Rep nickase domain of banana bunchy top virus
T2 sequence (protein, residues 1-94, tag omitted): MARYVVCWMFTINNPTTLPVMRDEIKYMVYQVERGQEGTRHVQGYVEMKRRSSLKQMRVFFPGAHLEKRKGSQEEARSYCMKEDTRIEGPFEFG
Experimental: as §1

[3] = test system: T3, Rep nickase domain of cabbage leaf curl virus
T3 sequence (protein, residues 1-116, tag omitted): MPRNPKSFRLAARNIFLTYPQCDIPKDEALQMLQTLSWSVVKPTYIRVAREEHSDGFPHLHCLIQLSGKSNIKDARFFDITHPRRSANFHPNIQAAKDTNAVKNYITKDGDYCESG
Experimental: as §1

[4] = test system: T4, Rep nickase domain of chickpea chlorotic dwarf virus
T4 sequence (protein, residues 1-124, tag omitted): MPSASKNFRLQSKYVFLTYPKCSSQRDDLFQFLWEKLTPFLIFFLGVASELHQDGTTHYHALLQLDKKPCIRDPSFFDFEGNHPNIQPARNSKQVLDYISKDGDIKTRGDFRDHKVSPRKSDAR
Experimental: as §1

[5] = test system: T5, Rep nickase domain of faba bean necrotic yellows virus
T5 sequence (protein, residues 1-98, tag omitted): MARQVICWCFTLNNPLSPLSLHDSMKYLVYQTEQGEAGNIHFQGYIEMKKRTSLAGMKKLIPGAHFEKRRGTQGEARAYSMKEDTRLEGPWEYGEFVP
Experimental: as §1

[6] = test system: T6, Rep nickase domain of maize striate mosaic virus
T6 sequence (protein, residues 1-117, tag omitted): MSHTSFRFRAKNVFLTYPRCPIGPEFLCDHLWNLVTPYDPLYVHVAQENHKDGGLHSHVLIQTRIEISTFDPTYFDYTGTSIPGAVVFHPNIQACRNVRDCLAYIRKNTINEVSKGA
Experimental: as §1

[7] = test system: T7, Rep nickase domain of porcine circovirus 2
T7 sequence (protein, residues 2-116, tag omitted): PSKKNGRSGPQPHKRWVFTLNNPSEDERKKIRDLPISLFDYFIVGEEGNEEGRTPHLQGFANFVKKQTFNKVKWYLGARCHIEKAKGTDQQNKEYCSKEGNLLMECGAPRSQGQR
Experimental: as §1

[8] = test system: T8, Rep nickase domain of tomato golden mosaic virus
T8 sequence (protein, residues 1-124, tag omitted): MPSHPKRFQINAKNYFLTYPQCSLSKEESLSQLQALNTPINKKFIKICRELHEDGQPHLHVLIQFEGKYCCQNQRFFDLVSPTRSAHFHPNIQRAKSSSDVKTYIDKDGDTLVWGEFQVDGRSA
Experimental: as §1

[9] = test system: T9, Rep nickase domain of tomato yellow leaf curl virus
T9 sequence (protein, residues 1-136, tag omitted): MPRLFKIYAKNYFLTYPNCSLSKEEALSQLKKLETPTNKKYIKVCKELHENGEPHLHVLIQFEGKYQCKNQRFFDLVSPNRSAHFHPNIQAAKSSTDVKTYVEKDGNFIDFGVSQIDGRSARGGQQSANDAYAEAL
Experimental: as §1

[10] = test system: T10, Rep nickase domain of wheat dwarf virus
T10 sequence (protein, residues 1-137, tag omitted): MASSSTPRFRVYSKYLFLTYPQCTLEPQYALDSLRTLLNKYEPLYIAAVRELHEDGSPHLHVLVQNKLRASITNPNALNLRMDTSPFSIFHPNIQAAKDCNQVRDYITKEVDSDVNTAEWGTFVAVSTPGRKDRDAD
Experimental: as §1

Sequence	uncleaved DNA left (log2) [1]	uncleaved DNA left (log2) [2]	uncleaved DNA left (log2) [3]	uncleaved DNA left (log2) [4]	uncleaved DNA left (log2) [5]	uncleaved DNA left (log2) [6]	uncleaved DNA left (log2) [7]	uncleaved DNA left (log2) [8]	uncleaved DNA left (log2) [9]	uncleaved DNA left (log2) [10]
ACTAGTT	-0.0881	-0.0337	-0.435	-1.82	-0.0238	-0.56	-1.01	0.0968	-0.0391	-0.0686
GTAGTCG	0.134	0.113	-0.589	-0.257	0.043	-0.587	0.185	0.0513	0.196	0.0858
TACGTAC	0.00792	-0.0755	-0.245	-0.314	0.0362	-0.958	-0.0624	-0.115	0.000945	0.044
CGCCTCC	0.0695	-0.0156	0.141	0.246	0.000181	0.573	0.0641	-0.104	0.0066	0.0221
TACTCCA	-0.983	-0.317	-0.378	-2.39	-0.2	-0.127	-2.83	-0.245	-0.0564	-0.0781
ACTGGGG	-0.0256	0.107	0.44	0.852	0.131	0.563	0.231	0.169	-0.0311	0.104
TTTGAGG	0.0708	0.067	0.44	1.23	0.021	1.43	0.213	0.131	0.0153	0.0488
ACAGCCT	-0.117	-0.0909	-0.5	-2.16	-0.0519	-0.845	-0.0358	-0.0664	-0.18	-0.222
CGGAGGT	-0.0156	0.00158	0.263	0.876	0.021	1.05	0.0164	-0.0173	-0.157	0.00608
GGTTCCC	-0.237	-0.0217	0.267	0.86	-0.138	1.52	-1.74	-0.119	0.0801	-0.00703
TAACGCT	-0.051	0.0666	-3.17	-3.5	0.0213	-1.79	-0.304	-0.449	-0.0226	-2.09
TACTCCC	-0.437	-0.202	-0.289	-1.35	-0.0332	-0.217	-2.67	-0.287	-0.263	-0.201
TGTCATT	-0.0308	0.184	0.39	-0.163	-0.2	1.06	-2.06	-0.144	0.256	0.135
ATCAACG	-0.0468	-0.0445	-0.945	-0.34	-0.036	-1.13	0.12	-0.00229	-0.201	-0.0366
CACGACA	-0.0663	0.117	-0.0579	-1.82	-0.0416	0.0126	-0.611	-0.103	0.0427	-0.218
CTGGCCA	0.0713	0.077	0.0694	0.0284	0.0315	0.173	-0.0137	0.0603	0.0785	-0.0221
CCGGGTC	0.0519	-0.0353	0.405	0.681	-0.186	1.6	0.168	-0.0541	0.0521	0.00592
TGGGTAG	-0.0103	0.029	0.0213	0.261	0.151	-0.164	0.315	-0.0038	0.137	0.094
TTCATTC	0.00158	0.0155	-0.0841	-0.29	-0.0655	-0.991	0.0153	-0.0962	-0.0269	-0.0999
ATCAACA	-0.0414	0.0192	-0.132	-2.45	-0.0688	-0.699	-0.0316	0.0511	0.0138	0.00993

Sequence	uncleaved DNA left (log2) [1]	uncleaved DNA left (log2) [2]	uncleaved DNA left (log2) [3]	uncleaved DNA left (log2) [4]	uncleaved DNA left (log2) [5]	uncleaved DNA left (log2) [6]	uncleaved DNA left (log2) [7]	uncleaved DNA left (log2) [8]	uncleaved DNA left (log2) [9]	uncleaved DNA left (log2) [10]
TATACCC	-0.0908	-0.218	0.0567	-1.4	-0.0997	-0.298	-0.864	-0.0445	-0.0771	-0.0864
AGAACGT	0.0521	0.0639	0.135	0.328	-0.0162	-0.229	0.141	0.0575	0.133	0.132
CTATGAG	0.0845	-0.00664	-0.767	-0.126	0.183	-1.09	0.185	-0.109	0.0873	-0.0947
GCTTACT	-2.23	-0.229	-0.096	-1.99	-0.0614	0.145	-2.66	0.000357	0.0984	-0.131
AGCCTAA	-0.0563	-0.0142	0.082	0.35	-0.106	0.338	-0.26	0.0523	0.101	0.0979
TCGTGTG	0.133	-0.087	-0.76	-0.496	0.135	-1.01	0.129	-0.0597	0.0647	-0.154
TAGTTCG	-0.0847	0.0491	-0.795	-0.0551	0.0821	-1.16	-0.385	-0.122	0.101	-0.109
TGACCGG	0.078	0.0626	0.301	0.93	0.116	0.689	0.171	0.157	0.0362	0.0536
TCGAAGG	0.0241	-0.0239	0.299	0.973	0.118	1.15	0.00216	-0.0332	-0.133	0.0601
GGGTGTA	0.145	0.0983	0.809	1.75	0.00743	2.19	0.0493	0.0803	0.123	0.154
GAGCCTT	-0.0784	-0.0372	0.526	0.475	0.0205	1.65	-1.7	-0.0449	0.0951	0.244
CGTTCAG	0.00288	0.0867	-0.612	-0.453	0.0783	-0.966	0.16	0.00416	0.0104	-0.135
GCACATT	0.0394	-0.0275	0.454	1.05	-0.15	1.23	0.00775	-0.203	-0.083	0.0386
CCTTCGG	-0.0905	-0.121	0.419	1.14	-0.086	1.24	-0.0502	0.0652	-0.0793	-0.0231
GCCGCGT	0.0396	0.0438	-0.49	-0.069	0.134	-0.444	0.287	0.087	0.0435	0.0446
ATTTGCC	-0.00232	-0.0425	-0.667	-0.481	-0.0516	-1.04	0.113	-0.107	0.0258	-0.177
CTCGTTG	-0.0512	-0.101	-0.606	-0.63	-0.0356	-0.941	0.0196	-0.00571	-0.0286	-0.173
TCCCGCT	0.0172	-0.158	-0.307	-0.957	-0.0556	-0.839	-0.098	-0.112	0.0466	-0.0295
CCCCGTT	-0.0493	-0.275	-0.274	-1.29	-0.193	-0.604	-0.301	-0.228	-0.244	-0.245
TGCTTGC	0.0816	0.0018	0.145	0.262	0.000373	0.0896	0.0713	0.116	0.0808	-0.0223

Sequence	uncleaved DNA left (log2) [1]	uncleaved DNA left (log2) [2]	uncleaved DNA left (log2) [3]	uncleaved DNA left (log2) [4]	uncleaved DNA left (log2) [5]	uncleaved DNA left (log2) [6]	uncleaved DNA left (log2) [7]	uncleaved DNA left (log2) [8]	uncleaved DNA left (log2) [9]	uncleaved DNA left (log2) [10]
ATTCTCC	0.0485	0.0219	0.0489	0.538	0.138	1.18	0.0934	0.0777	0.0266	0.067
CGTGGAA	0.0429	-0.082	0.24	0.651	-0.0343	0.734	0.00177	-0.0678	-0.0632	-0.00812
ATGAGTA	0.0768	0.0703	-0.194	-0.941	0.167	-0.775	-0.245	0.0239	0.0241	-0.12
CTGCTGT	-0.0172	-0.0811	-0.0901	0.0893	-0.265	0.00926	0.0611	-0.104	-0.129	-0.0882
AATGGCG	-0.00111	0.0351	-0.421	1.03	0.0546	0.223	0.166	-0.037	0.0567	-0.0685
CTTTTAC	-1.17	-0.0412	-0.37	-2.09	-0.0543	-0.769	-1.6	-0.085	0.0644	-0.063
TGGTGAG	-0.00912	-0.106	-0.496	-0.136	0.0218	-0.709	0.124	-0.0787	-0.00903	-0.0727
CGATGGG	0.0772	0.0787	-0.403	-0.419	0.142	-0.807	0.142	0.0114	0.102	-0.111
GTAAAAG	0.0161	-0.00794	-0.477	-0.518	-0.0051	-0.886	0.169	0.0119	0.0822	-0.0102
GTGCCCC	-0.158	-0.08	0.282	0.757	-0.117	1.67	0.0197	0.0165	0.0158	-0.0986
GCCGCGC	0.00378	-0.0812	-0.496	-0.152	0.031	-0.543	0.0235	-0.00979	-0.14	-0.272
TTGAAAG	0.00351	-0.0153	-0.751	-0.778	0.042	-1.19	0.186	0.0379	0.0479	0.00347
ACCAGCT	-0.122	-0.063	-0.482	-1.08	0.0923	-0.979	0.0547	-0.0279	0.0225	-0.0612
CAACAGA	-0.00747	0.062	-0.205	-1.47	0.0806	-0.828	0.0371	-0.0074	0.0784	0.0641
CGTAGGA	0.174	0.0786	0.249	0.473	0.0897	-0.145	0.0533	0.085	0.09	0.141
CTCATGA	-0.0768	-0.0272	-0.157	-0.0669	-0.0982	-1.06	-0.0419	-0.192	-0.038	-0.114
CAAGGCC	0.0367	-0.0356	-0.00605	0.201	-0.0403	-0.244	-0.0302	0.034	0.00829	0.0223
CGTCTTA	-0.0155	-0.015	0.124	-0.615	0.0807	-0.0784	-0.24	-0.0801	0.064	0.196
AGAAGCA	0.0118	0.029	-0.0121	-0.365	0.0868	-0.667	-0.374	0.103	0.02	0.0638
CATACGA	0.103	0.0643	-0.0138	-0.548	0.0461	-1	0.236	0.0143	0.0416	-0.0312

Source: the supplement of paper PMC7826260
